Assay [1] has as its target AGAMOUS-LIKE 6 (AGL6) (Arabidopsis thaliana) (UniProt P29386). The assay can be described thus: two-hybrid; pairs of pDEST-AD and pDEST-DB vectors co-transformed into yeast strain AH109; growth on higher stringency plates, -HWL with 30 mM 3AT, after 6 days (Figure 6B).
Assay [2] concerns the target T1, AGAMOUS-LIKE 24 (AGL24) (Arabidopsis thaliana) (UniProt O82794).
T1 sequence: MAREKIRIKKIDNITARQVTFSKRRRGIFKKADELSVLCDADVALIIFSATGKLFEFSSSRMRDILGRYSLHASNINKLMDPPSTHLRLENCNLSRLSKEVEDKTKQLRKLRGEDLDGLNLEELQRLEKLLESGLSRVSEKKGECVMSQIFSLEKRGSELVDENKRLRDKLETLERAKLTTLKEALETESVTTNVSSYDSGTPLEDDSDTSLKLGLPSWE
The assay can be described thus: two-hybrid; pairs of pDEST-AD and pDEST-DB vectors co-transformed into yeast strain AH109; growth on lower stringency plates, -HWL with 20 mM 3AT, after 6 days (Figure 6A; for AP1, mAP1 and FUL the text cites Figure 6 as a whole).

By UniProt entry, the sequences of proteins in these tests, tags left out.
UniProt P29386: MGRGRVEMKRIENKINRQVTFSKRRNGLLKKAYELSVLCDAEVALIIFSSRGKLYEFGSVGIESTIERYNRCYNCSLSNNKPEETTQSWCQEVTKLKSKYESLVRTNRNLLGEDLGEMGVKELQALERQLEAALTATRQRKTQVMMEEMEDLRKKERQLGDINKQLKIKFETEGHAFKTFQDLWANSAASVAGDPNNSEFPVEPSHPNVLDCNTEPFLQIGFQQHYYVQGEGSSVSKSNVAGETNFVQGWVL
UniProt P29382: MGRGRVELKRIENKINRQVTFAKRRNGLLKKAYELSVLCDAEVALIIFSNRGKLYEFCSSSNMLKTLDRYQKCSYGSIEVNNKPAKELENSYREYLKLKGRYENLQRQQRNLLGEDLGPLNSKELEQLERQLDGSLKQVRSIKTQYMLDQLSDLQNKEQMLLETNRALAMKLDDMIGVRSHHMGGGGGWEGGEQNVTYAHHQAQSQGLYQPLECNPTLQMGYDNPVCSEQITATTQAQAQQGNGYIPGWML
UniProt O22456: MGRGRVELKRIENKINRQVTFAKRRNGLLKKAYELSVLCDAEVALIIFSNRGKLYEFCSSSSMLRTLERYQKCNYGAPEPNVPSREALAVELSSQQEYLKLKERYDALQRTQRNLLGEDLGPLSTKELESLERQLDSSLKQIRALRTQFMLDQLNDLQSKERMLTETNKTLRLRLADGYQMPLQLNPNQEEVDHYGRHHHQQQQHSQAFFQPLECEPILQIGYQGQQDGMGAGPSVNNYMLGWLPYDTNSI
UniProt Q38876: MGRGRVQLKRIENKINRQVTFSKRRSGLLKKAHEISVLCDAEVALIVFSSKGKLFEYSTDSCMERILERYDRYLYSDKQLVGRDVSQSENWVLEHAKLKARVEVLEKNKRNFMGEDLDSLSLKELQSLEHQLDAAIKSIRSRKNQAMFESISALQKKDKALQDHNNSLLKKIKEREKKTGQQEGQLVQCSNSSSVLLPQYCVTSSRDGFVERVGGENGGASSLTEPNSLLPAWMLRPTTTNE

For assay [3], the target named is AGAMOUS-LIKE 6 (AGL6) (Arabidopsis thaliana) (UniProt P29386). The description is as above.
The target of assay [4] is T2, APETALA3 (AP3) (Arabidopsis thaliana) (UniProt P35632).
T2 sequence: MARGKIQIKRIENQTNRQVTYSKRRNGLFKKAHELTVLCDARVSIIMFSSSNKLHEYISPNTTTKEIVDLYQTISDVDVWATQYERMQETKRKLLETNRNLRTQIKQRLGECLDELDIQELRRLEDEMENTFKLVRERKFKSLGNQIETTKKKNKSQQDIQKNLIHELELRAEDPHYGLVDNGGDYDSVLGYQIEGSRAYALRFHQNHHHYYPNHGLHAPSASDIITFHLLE
The assay is described as above.

Assay [5] addresses T3, … (PI) (Arabidopsis thaliana) (UniProt P48007).
T3 sequence: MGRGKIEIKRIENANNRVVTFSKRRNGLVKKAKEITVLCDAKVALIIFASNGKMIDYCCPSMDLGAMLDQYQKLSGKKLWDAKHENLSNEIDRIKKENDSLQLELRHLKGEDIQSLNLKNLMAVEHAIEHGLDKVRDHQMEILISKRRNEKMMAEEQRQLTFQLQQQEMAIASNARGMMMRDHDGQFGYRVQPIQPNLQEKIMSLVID
The description is as above.

Assay [6] has as its target …1 (SEP1) (Arabidopsis thaliana) (UniProt P29382). The assay is described as above.
Assay [7] concerns the target …3 (SEP3) (Arabidopsis thaliana) (UniProt O22456). The description is as above.

Results are given in words; binding and its absence hold for the method and conditions named. Some entries that bind do so weakly or less than the wild type.

“FRUITFULL (FUL) (from UniProt Q38876 1-242)”: the binding result in assay [1] is “binds”; in assay [2], “binds”; in assay [3], “binds”; in assay [4], “no binding”; in assay [5] it was “no binding”; in assay [6] it was “binds”. Also, the binding result in assay [7] is listed as “binds”.

The record behind these values is paper PMC4667048.
